7 compounds from ChEMBL document CHEMBL1961873, “Compounds: GSK PKIS; Assays: Nanosyn kinase panel” (2012) can be followed below.

Each structure is given as a SMILES string. For some assays here: Shown are results outside the selection of strong results, which stands elsewhere. The list shows a part of the results, in another mix than the full data.

Experiment [1] has as its target Tyrosine-protein kinase Fer (Homo sapiens) (UniProt P16591). As to conditions: at 1 µM.
Experiment [2] concerns the target Tyrosine-protein kinase Fes/Fps (Homo sapiens) (UniProt P07332). Conditions: at 0.1 µM.
Experiment [3] shares this target. Conditions: at 1 µM.
Experiment [4] addresses Fibroblast growth factor receptor 1 (Homo sapiens) (UniProt P11362). As to conditions: at 0.1 µM.
Experiment [5] has the same target. Conditions: at 1 µM.
Experiment [6] addresses Fibroblast growth factor receptor 2 (Homo sapiens) (UniProt P21802). Conditions: at 0.1 µM.
Experiment [7] shares this target. As to conditions: at 1 µM.
Experiment [8] addresses Fibroblast growth factor receptor 3 (Homo sapiens) (UniProt P22607). As to conditions: at 0.1 µM.
Experiment [9] shares this target. Conditions: at 1 µM.
In experiment [10] the target is Fibroblast growth factor receptor 4 (Homo sapiens) (UniProt P22455). Conditions: at 0.1 µM.
Experiment [11] shares this target. As to conditions: at 1 µM.
For experiment [12], the target named is Tyrosine-protein kinase Fgr (Homo sapiens) (UniProt P09769). As to conditions: at 0.1 µM.
For experiment [13] the target is unchanged. Conditions: at 1 µM.
Experiment [14] concerns the target Vascular endothelial growth factor receptor 1 (Homo sapiens) (UniProt P17948). Conditions: at 0.1 µM.
The target is the same in experiment [15]. As to conditions: at 1 µM.
Experiment [16] addresses Receptor-type tyrosine-protein kinase FLT3 (Homo sapiens) (UniProt P36888). As to conditions: at 0.1 µM.
Experiment [17] shares this target. As to conditions: at 1 µM.
Experiment [18] relates to T1, Receptor-type tyrosine-protein kinase FLT3 (Homo sapiens), P36888 [D835Y].
T1 sequence (whole entry): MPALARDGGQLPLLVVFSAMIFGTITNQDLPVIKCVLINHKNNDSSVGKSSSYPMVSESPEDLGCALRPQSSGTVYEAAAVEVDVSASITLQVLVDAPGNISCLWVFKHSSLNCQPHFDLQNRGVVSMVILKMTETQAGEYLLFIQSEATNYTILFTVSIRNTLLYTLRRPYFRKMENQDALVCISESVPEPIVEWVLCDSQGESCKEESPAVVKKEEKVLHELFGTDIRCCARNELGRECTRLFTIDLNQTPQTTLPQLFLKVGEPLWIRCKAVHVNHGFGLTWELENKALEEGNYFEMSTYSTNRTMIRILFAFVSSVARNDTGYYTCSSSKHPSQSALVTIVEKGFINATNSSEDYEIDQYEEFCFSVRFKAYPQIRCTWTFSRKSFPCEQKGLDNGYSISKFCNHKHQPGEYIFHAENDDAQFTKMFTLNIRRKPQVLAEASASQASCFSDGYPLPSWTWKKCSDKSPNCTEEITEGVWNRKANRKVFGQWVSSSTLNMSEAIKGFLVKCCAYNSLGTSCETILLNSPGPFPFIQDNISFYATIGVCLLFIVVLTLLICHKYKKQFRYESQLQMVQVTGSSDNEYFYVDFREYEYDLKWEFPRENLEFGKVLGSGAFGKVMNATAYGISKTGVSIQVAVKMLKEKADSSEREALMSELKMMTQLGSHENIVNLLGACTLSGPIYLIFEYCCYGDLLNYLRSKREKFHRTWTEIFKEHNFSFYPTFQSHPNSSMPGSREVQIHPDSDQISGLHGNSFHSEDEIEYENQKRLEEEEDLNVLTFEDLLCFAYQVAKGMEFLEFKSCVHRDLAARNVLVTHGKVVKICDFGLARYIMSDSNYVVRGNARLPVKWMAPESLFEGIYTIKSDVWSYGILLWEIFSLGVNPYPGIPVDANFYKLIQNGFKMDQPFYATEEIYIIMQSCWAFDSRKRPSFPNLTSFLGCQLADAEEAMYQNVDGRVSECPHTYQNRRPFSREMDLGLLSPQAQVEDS
Conditions: at 0.1 µM.

Experiment [19] deals with Non-receptor tyrosine-protein kinase TYK2 (Homo sapiens) (UniProt P29597). As to conditions: at 1 µM.
Experiment [20] addresses T2, Tyrosine-protein kinase receptor TYRO3 (Homo sapiens) (UniProt Q06418).
T2 sequence (whole entry): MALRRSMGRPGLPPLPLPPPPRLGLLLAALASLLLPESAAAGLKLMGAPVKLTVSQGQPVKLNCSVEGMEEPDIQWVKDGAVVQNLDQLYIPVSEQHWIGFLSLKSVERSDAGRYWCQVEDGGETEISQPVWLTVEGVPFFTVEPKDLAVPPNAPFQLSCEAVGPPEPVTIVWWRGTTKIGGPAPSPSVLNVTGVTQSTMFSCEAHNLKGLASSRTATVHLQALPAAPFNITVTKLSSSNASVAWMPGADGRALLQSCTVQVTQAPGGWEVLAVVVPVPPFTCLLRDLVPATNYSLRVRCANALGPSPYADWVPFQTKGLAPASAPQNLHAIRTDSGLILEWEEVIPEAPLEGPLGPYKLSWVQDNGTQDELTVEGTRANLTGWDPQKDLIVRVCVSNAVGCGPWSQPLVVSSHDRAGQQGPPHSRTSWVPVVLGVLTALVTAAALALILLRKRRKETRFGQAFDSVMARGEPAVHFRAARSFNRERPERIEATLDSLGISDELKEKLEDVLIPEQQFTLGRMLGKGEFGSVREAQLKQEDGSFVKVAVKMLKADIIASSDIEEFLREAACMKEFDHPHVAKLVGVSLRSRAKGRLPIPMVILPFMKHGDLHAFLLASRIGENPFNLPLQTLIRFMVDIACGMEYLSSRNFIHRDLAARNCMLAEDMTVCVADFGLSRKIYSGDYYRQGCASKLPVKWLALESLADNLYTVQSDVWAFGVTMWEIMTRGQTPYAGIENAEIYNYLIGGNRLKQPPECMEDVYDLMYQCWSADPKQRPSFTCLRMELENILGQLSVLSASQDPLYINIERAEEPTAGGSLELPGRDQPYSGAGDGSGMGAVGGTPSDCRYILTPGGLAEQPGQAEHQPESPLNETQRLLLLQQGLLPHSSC
Conditions: at 0.1 µM.

One may read the inhibition as the drop in the measured response relative to a control, in per cent.

Sequence of UniProt P22607 (P22607 whole entry, looked up): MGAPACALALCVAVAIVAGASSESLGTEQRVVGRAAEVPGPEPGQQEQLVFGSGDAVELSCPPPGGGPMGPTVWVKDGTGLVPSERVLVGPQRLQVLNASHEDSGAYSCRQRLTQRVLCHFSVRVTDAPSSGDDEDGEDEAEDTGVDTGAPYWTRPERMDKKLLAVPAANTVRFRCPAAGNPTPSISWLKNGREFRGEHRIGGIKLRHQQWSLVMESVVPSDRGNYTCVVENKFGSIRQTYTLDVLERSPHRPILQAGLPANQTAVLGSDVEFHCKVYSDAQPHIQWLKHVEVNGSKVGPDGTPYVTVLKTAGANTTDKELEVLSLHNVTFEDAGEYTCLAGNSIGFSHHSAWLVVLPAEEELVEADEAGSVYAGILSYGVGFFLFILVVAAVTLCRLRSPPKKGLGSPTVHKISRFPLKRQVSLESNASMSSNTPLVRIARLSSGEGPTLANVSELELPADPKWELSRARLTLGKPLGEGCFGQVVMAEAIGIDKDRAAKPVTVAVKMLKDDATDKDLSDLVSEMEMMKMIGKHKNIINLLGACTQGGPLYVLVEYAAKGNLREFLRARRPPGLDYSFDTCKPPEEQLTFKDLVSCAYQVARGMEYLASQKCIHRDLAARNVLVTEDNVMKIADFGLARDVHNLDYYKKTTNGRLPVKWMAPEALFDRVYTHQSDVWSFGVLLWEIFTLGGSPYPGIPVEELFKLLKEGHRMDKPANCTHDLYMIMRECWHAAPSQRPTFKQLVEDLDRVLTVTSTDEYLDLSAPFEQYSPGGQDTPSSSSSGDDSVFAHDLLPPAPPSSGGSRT
Sequence of UniProt P17948 (P17948 whole entry): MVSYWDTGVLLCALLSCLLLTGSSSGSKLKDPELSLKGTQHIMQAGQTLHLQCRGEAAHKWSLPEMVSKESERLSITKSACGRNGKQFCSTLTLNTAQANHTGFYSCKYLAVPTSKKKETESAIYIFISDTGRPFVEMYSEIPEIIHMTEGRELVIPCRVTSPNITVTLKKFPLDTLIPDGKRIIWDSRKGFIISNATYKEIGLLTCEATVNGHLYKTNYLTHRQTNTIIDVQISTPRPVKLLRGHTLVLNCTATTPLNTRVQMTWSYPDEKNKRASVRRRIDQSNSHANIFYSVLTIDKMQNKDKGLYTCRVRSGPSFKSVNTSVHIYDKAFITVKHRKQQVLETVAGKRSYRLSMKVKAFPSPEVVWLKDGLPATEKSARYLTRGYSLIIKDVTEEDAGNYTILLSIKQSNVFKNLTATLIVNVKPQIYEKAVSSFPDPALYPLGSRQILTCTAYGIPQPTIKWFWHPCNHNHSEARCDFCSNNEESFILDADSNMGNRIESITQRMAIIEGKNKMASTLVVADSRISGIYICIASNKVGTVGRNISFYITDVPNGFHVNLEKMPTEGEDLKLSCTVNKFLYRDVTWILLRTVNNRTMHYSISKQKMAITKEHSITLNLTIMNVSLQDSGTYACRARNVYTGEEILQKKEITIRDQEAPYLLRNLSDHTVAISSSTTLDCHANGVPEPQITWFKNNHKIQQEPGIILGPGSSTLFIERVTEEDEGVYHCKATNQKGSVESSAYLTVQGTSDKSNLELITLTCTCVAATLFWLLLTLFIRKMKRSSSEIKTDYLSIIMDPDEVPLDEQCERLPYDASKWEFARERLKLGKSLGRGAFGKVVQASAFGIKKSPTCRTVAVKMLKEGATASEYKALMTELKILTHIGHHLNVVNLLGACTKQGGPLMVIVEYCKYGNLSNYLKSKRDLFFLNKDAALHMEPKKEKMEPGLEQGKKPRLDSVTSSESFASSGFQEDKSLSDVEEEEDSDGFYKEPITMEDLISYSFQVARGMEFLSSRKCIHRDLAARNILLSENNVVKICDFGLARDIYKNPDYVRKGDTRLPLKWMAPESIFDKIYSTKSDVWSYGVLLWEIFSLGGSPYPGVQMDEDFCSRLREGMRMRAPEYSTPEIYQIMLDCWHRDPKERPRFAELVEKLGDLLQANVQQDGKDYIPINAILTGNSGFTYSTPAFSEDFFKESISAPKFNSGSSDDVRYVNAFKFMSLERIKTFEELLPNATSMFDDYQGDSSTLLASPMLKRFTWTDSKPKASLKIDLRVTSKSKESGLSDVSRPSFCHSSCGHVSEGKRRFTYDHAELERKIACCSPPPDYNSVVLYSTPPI
Sequence of UniProt P09769 (P09769 whole entry, looked up): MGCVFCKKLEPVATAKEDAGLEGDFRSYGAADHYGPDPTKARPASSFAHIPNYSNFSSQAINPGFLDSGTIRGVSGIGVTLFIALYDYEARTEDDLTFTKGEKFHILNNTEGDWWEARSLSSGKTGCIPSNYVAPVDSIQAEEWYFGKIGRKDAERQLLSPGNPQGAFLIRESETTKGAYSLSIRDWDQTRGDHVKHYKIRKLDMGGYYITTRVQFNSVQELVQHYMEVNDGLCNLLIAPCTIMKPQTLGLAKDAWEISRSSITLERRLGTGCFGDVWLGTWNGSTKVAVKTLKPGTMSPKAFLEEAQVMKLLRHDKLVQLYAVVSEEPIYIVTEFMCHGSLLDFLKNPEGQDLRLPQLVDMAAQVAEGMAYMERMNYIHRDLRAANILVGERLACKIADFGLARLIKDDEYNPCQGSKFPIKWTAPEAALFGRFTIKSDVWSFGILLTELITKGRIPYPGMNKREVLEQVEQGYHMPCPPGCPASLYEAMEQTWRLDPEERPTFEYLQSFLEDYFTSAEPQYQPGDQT
Sequence of UniProt P07332 (P07332 whole entry): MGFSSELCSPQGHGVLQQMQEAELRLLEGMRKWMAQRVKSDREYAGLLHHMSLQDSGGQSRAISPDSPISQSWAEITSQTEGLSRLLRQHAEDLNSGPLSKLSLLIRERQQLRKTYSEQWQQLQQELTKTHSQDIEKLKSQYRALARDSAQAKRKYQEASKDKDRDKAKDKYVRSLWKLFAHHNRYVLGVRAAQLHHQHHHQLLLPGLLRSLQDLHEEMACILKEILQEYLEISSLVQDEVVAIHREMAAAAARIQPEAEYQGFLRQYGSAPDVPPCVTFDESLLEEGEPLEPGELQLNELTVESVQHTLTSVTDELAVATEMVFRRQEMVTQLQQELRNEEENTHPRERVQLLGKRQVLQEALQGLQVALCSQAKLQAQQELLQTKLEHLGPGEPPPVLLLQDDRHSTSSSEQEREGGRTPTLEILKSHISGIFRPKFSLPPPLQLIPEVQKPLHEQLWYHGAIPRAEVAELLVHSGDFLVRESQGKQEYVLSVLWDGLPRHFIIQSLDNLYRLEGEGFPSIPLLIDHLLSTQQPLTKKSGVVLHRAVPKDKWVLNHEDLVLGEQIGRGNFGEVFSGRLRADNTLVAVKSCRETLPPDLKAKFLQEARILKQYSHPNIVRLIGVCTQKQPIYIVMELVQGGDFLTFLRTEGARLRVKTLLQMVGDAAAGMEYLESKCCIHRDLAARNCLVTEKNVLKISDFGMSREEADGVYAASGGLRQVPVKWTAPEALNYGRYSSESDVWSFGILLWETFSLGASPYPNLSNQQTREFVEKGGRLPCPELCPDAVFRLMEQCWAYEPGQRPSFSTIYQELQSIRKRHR
Sequence of UniProt P29597 (P29597 whole entry): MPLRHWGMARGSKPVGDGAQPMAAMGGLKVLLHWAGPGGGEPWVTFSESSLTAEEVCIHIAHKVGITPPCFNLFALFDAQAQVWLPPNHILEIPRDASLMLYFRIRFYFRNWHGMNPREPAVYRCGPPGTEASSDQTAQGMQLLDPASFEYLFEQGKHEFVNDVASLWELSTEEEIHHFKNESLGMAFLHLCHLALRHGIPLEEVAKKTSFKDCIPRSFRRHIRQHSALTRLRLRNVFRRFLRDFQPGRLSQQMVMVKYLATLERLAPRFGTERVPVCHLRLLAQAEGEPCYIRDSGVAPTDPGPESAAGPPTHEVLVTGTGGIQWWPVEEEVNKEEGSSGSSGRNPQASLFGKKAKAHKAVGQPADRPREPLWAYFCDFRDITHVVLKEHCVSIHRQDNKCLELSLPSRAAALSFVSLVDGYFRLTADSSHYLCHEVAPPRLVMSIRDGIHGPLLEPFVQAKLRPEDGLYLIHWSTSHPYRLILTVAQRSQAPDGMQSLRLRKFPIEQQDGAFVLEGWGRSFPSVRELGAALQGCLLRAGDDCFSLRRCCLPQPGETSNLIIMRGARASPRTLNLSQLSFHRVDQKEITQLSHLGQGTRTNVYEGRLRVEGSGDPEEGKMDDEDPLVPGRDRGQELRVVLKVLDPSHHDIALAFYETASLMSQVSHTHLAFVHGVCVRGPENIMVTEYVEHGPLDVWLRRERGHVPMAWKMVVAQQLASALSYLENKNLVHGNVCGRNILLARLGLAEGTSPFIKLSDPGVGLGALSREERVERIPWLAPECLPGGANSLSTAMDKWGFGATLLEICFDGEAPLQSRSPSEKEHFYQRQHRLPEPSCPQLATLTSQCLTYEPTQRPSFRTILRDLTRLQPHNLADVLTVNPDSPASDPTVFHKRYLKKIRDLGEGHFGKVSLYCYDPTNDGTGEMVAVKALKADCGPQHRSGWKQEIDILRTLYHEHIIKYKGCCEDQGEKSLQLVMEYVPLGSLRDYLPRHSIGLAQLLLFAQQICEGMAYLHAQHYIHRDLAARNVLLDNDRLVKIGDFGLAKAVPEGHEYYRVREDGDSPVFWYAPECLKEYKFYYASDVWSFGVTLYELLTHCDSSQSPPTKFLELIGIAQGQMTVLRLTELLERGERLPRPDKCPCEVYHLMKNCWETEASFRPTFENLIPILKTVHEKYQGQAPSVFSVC

With `O=C1NC(=O)C(c2ccccc2)=C1Nc1ccccc1`, the inhibition in experiment [1] is 6.31%; in experiment [2] it was 3.21%; in experiment [3] it was 4.15%; in experiment [4] it was 4.96%; in [5], 8.84%; in experiment [6], 10.4%. Moreover, the inhibition in [7] was 8.86%; in [8], 7.7%; in experiment [9] it was 9.46%; in [10], -1.29%; in experiment [11] it was 4.63%; in experiment [12] it was 7.27%. Besides, the inhibition worked out at 10.7% in [13]; 3.69% in [14]; 3.39% in experiment [15]; 4.03% in experiment [16]; 4.12% in [17]; 2.24% in experiment [18]. Besides, the inhibition in experiment [19] was -3.23%; in experiment [20], 2.82%.

With `O=C1NC(=O)C(c2ccccc2Cl)=C1Nc1cc(Cl)c(O)c(Cl)c1`, the inhibition is 4.57% in experiment [1]; 2.25% in experiment [2]; 3.17% in experiment [3]; -0.23% in experiment [4]; 4.13% in [5]; 4.56% in [6]. In addition, the inhibition is 7.38% in experiment [7]; 5.47% in [8]; 7.1% in experiment [9]; 0.3% in experiment [10]; 0.81% in experiment [11]; 1.95% in experiment [12]. Further, the inhibition turned out to be 3.43% in experiment [13]; 1.02% in [14]; 3.88% in experiment [15]; 2.92% in [16]; 5.05% in [17]; 6.78% in experiment [18]. Further, the inhibition in experiment [19] is -5.94%; in [20] it was 3.71%.

`Fc1ccc(Oc2nccc(-c3c(-c4ccc(F)cc4)ncn3C3CCNCC3)n2)cc1`: the inhibition in experiment [1] was 3.13%; in [2], 2.44%; in [3], 2.52%; in experiment [4], 3.29%; in [5], -2.94%; in experiment [6], 5.52%. Also, the inhibition was 0.13% in [7]; 4.38% in experiment [8]; 5.03% in experiment [9]; -0.31% in [10]; -1.62% in experiment [11]; 0.72% in experiment [12]. Moreover, the inhibition in experiment [13] was 1.58%; in [14], 1.21%; in [15], 4.59%; in [16], -0.13%; in experiment [17], 3.38%; in experiment [18], 2.81%. Besides, the inhibition was -5.03% in experiment [19] and 2.16% in experiment [20].

In the case of `NC(=O)CCc1ccccc1Oc1nccc(-c2c(-c3ccc(F)cc3)ncn2C2CCNCC2)n1`, the inhibition in experiment [1] is 0.82%; in [2] it was -1.56%; in experiment [3] it was -1.5%; in [4], -2.59%; in [5], -2.27%; in experiment [6], 1.39%. The inhibition in experiment [7] is 0.01%; in [8] it was -1.2%; in experiment [9] it was -1.28%; in experiment [10] it was 1.08%; in experiment [11] it was -0.84%; in experiment [12], -0.91%. Besides, the inhibition is -0.62% in experiment [13]; -1.33% in [14]; -1.04% in experiment [15]; 0.65% in [16]; -1.61% in [17]; -1.18% in [18]. In addition, the inhibition is 1.93% in [19] and -0.96% in experiment [20].

As to `O=C(O)c1ccc(Oc2nccc(-c3c(-c4ccc(F)cc4)ncn3C3CCNCC3)n2)cc1`, the inhibition in [1] stood at 1.31%; in experiment [2], 3.23%; in [3] it was 4.78%; in experiment [4], 3.77%; in experiment [5], 6.13%; in experiment [6], 9%. In addition, the inhibition in experiment [7] amounted to 8.13%; in experiment [8], 10.4%; in experiment [9] it was 8.63%; in experiment [10] it was 3.16%; in [11] it was 2.15%; in [12] it was 0.55%. Besides, the inhibition in experiment [13] was 0.29%; in experiment [14] it was 1.41%; in experiment [15], 1.14%; in experiment [16] it was 5.63%; in experiment [17] it was 4.03%; in experiment [18] it was -3.29%. Besides, the inhibition in [19] is -3.71%; in experiment [20], 0.73%.

On to `Cc1cccc(Oc2nccc(-c3c(-c4ccc(F)cc4)ncn3C3CCNCC3)n2)c1C`, for which the inhibition in experiment [1] came out at 4.21%; in [2], 3.78%; in experiment [3], 3.26%; in experiment [4], 2.25%; in [5], 10.6%; in experiment [6], 5.52%. Also, the inhibition in experiment [7] was 7.26%; in experiment [8], 5.67%; in [9] it was 6.68%; in [10], 0.9%; in [11], -0.15%; in experiment [12] it was 1.96%. The inhibition in experiment [13] is 4.8%; in experiment [14], -0.2%; in [15], 2.15%; in experiment [16], 4.11%; in experiment [17] it was 1.45%; in experiment [18], -5.43%. The inhibition in [19] is -3.24%; in [20], 2.09%.

With `CC(C)(C)c1ccc(Oc2nccc(-c3c(-c4ccc(F)cc4)ncn3C3CCNCC3)n2)cc1`, the inhibition was 0.49% in experiment [1]; 3.94% in experiment [2]; 3.31% in experiment [3]; -0.81% in experiment [4]; 2.92% in experiment [5]; 2.22% in experiment [6]. Also, the inhibition in [7] was 3.69%; in experiment [8] it was 3.32%; in experiment [9] it was 2.86%; in experiment [10] it was -1.97%; in experiment [11], 1.86%; in experiment [12] it was 2.61%. Further, the inhibition in experiment [13] is 9.73%; in experiment [14] it was 0.36%; in experiment [15], 2.47%; in experiment [16] it was 1.73%; in experiment [17], 2.96%; in experiment [18], -6.25%. Also, the inhibition in experiment [19] was -2.22%; in [20], 1.85%.
